PMC12820563, “FoxP3 forms a head-to-head dimer in vivo and stabilizes its multimerization on adjacent microsatellites”
Some of the results follow.

molecular target: T1, MBP-FoxP1dN (Mus musculus, UniProt P58462 326-579); experiment: PD-seq (MBP pull-down with sequencing); 20 mM Tris-HCl pH 7.5, 100 mM NaCl, 1.5 mM MgCl2, 0.4 uM protein, 0.1 uM dsDNA library, 30 min, room temperature, amylose pull-down; high values mean tight binding; details: protein: recombinant; tags: His6-MBP; chain copies: 2; dsDNA, one strand shown
T1 sequence: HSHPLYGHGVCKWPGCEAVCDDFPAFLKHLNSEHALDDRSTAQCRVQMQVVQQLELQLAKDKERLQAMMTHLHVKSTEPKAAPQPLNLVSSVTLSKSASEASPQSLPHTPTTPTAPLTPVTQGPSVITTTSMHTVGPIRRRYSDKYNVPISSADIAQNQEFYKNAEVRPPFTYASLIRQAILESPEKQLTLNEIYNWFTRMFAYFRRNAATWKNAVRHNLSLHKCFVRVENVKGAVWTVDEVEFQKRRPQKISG
How it was run: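 A fragment of mouse FoxP3 or FoxP1 without its N-terminus, carrying a His6-MBP tag and produced in E. coli, was combined at 0.4 µM with a 0.1 µM degenerate double-stranded DNA library filled in with Klenow. The mixture sat for 30 min at room temperature in Tris pH 7.5 buffer containing NaCl and MgCl2. Protein–DNA complexes were captured on amylose resin, washed three times, and the DNA was freed with proteinase K, barcoded by PCR and sequenced on Illumina. Binding is expressed as reads-per-million enrichment of pull-down over input, with replicates pooled.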

| Sequence | binding signal |
| --- | --- |
| GATGATTGTTCTCCCAGCTGATGAATTTGTGTCTTCGAGTAAACAAATTTTCCTAATCTTTCTGTTCAAGCGCCATCTAC | 1.32 RPM ratio (pull-down/input) |
| GATGATTGTTCTCCCAGCTGATGAATTGAGTCCCTCGAGTAAACAAATTTTCCTAATCTTTCTGTTCAAGCGCCATCTAC | 0.781 RPM ratio (pull-down/input) |
| GATGATTGTTCTCCCAGCTGATGAATTCCGGAGCTCGAGTAAACAAATTTTCCTAATCTTTCTGTTCAAGCGCCATCTAC | 0.72 RPM ratio (pull-down/input) |
| GATGATTGTTCTCCCAGCTGATGAATTCACGCAATCGAGTAAACAAATTTTCCTAATCTTTCTGTTCAAGCGCCATCTAC | 1.32 RPM ratio (pull-down/input) |
| GATGATTGTTCTCCCAGCTGATGAATTAGAGGGTTCGAGTAAACAAATTTTCCTAATCTTTCTGTTCAAGCGCCATCTAC | 0.864 RPM ratio (pull-down/input) |
| GATGATTGTTCTCCCAGCTGATGAATTACAATACTCGAGTAAACAAATTTTCCTAATCTTTCTGTTCAAGCGCCATCTAC | 1.27 RPM ratio (pull-down/input) |
| GATGATTGTTCTCCCAGCTGATGAATTATTACGCTCGAGTAAACAAATTTTCCTAATCTTTCTGTTCAAGCGCCATCTAC | 1.05 RPM ratio (pull-down/input) |
| GATGATTGTTCTCCCAGCTGATGAATTGGGAAGTTCGAGTAAACAAATTTTCCTAATCTTTCTGTTCAAGCGCCATCTAC | 0.835 RPM ratio (pull-down/input) |
| GATGATTGTTCTCCCAGCTGATGAATTACAGTACTCGAGTAAACAAATTTTCCTAATCTTTCTGTTCAAGCGCCATCTAC | 1.06 RPM ratio (pull-down/input) |
| GATGATTGTTCTCCCAGCTGATGAATTTCCTGGGTCGAGTAAACAAATTTTCCTAATCTTTCTGTTCAAGCGCCATCTAC | 0.797 RPM ratio (pull-down/input) |
| GATGATTGTTCTCCCAGCTGATGAATTTCGGCGATCGAGTAAACAAATTTTCCTAATCTTTCTGTTCAAGCGCCATCTAC | 0.817 RPM ratio (pull-down/input) |
| GATGATTGTTCTCCCAGCTGATGAATTCCTGCCATCGAGTAAACAAATTTTCCTAATCTTTCTGTTCAAGCGCCATCTAC | 0.86 RPM ratio (pull-down/input) |
| GATGATTGTTCTCCCAGCTGATGAATTAACGGCCTCGAGTAAACAAATTTTCCTAATCTTTCTGTTCAAGCGCCATCTAC | 0.898 RPM ratio (pull-down/input) |
| GATGATTGTTCTCCCAGCTGATGAATTACGCGTTTCGAGTAAACAAATTTTCCTAATCTTTCTGTTCAAGCGCCATCTAC | 1.09 RPM ratio (pull-down/input) |
| GATGATTGTTCTCCCAGCTGATGAATTGACTTCGTCGAGTAAACAAATTTTCCTAATCTTTCTGTTCAAGCGCCATCTAC | 0.964 RPM ratio (pull-down/input) |
| GATGATTGTTCTCCCAGCTGATGAATTTCCACACTCGAGTAAACAAATTTTCCTAATCTTTCTGTTCAAGCGCCATCTAC | 0.908 RPM ratio (pull-down/input) |
| GATGATTGTTCTCCCAGCTGATGAATTACATGATTCGAGTAAACAAATTTTCCTAATCTTTCTGTTCAAGCGCCATCTAC | 1.22 RPM ratio (pull-down/input) |
| GATGATTGTTCTCCCAGCTGATGAATTGCTGACGTCGAGTAAACAAATTTTCCTAATCTTTCTGTTCAAGCGCCATCTAC | 1.09 RPM ratio (pull-down/input) |
| GATGATTGTTCTCCCAGCTGATGAATTAGTCTGCTCGAGTAAACAAATTTTCCTAATCTTTCTGTTCAAGCGCCATCTAC | 0.819 RPM ratio (pull-down/input) |
| GATGATTGTTCTCCCAGCTGATGAATTGCTATTCTCGAGTAAACAAATTTTCCTAATCTTTCTGTTCAAGCGCCATCTAC | 1.29 RPM ratio (pull-down/input) |

| Sequence | binding signal |
| --- | --- |
| GATGATTGTTCTCCCAGCTGATGAATTGGGCCGTTCGAGTAAACAAATTTTCCTAATCTTTCTGTTCAAGCGCCATCTAC | 0.85 RPM ratio (pull-down/input) |
| GATGATTGTTCTCCCAGCTGATGAATTCATCTCTTCGAGTAAACAAATTTTCCTAATCTTTCTGTTCAAGCGCCATCTAC | 0.774 RPM ratio (pull-down/input) |
| GATGATTGTTCTCCCAGCTGATGAATTGGCTTACTCGAGTAAACAAATTTTCCTAATCTTTCTGTTCAAGCGCCATCTAC | 0.92 RPM ratio (pull-down/input) |
| GATGATTGTTCTCCCAGCTGATGAATTAGCTGCGTCGAGTAAACAAATTTTCCTAATCTTTCTGTTCAAGCGCCATCTAC | 1.01 RPM ratio (pull-down/input) |
| GATGATTGTTCTCCCAGCTGATGAATTCCGTTGTTCGAGTAAACAAATTTTCCTAATCTTTCTGTTCAAGCGCCATCTAC | 1.12 RPM ratio (pull-down/input) |
| GATGATTGTTCTCCCAGCTGATGAATTTGGTAGTTCGAGTAAACAAATTTTCCTAATCTTTCTGTTCAAGCGCCATCTAC | 0.932 RPM ratio (pull-down/input) |
| GATGATTGTTCTCCCAGCTGATGAATTTCCATCGTCGAGTAAACAAATTTTCCTAATCTTTCTGTTCAAGCGCCATCTAC | 0.808 RPM ratio (pull-down/input) |
| GATGATTGTTCTCCCAGCTGATGAATTATTACTGTCGAGTAAACAAATTTTCCTAATCTTTCTGTTCAAGCGCCATCTAC | 1.17 RPM ratio (pull-down/input) |
| GATGATTGTTCTCCCAGCTGATGAATTACGCGTATCGAGTAAACAAATTTTCCTAATCTTTCTGTTCAAGCGCCATCTAC | 1.12 RPM ratio (pull-down/input) |
| GATGATTGTTCTCCCAGCTGATGAATTGGGTCGATCGAGTAAACAAATTTTCCTAATCTTTCTGTTCAAGCGCCATCTAC | 0.929 RPM ratio (pull-down/input) |
| GATGATTGTTCTCCCAGCTGATGAATTGCCCGACTCGAGTAAACAAATTTTCCTAATCTTTCTGTTCAAGCGCCATCTAC | 0.806 RPM ratio (pull-down/input) |
| GATGATTGTTCTCCCAGCTGATGAATTGTGGGTGTCGAGTAAACAAATTTTCCTAATCTTTCTGTTCAAGCGCCATCTAC | 1.04 RPM ratio (pull-down/input) |
| GATGATTGTTCTCCCAGCTGATGAATTGAGGCCCTCGAGTAAACAAATTTTCCTAATCTTTCTGTTCAAGCGCCATCTAC | 0.796 RPM ratio (pull-down/input) |
| GATGATTGTTCTCCCAGCTGATGAATTTCCCGGATCGAGTAAACAAATTTTCCTAATCTTTCTGTTCAAGCGCCATCTAC | 0.83 RPM ratio (pull-down/input) |
| GATGATTGTTCTCCCAGCTGATGAATTACACAACTCGAGTAAACAAATTTTCCTAATCTTTCTGTTCAAGCGCCATCTAC | 1.43 RPM ratio (pull-down/input) |
| GATGATTGTTCTCCCAGCTGATGAATTCTTTGGATCGAGTAAACAAATTTTCCTAATCTTTCTGTTCAAGCGCCATCTAC | 0.851 RPM ratio (pull-down/input) |
| GATGATTGTTCTCCCAGCTGATGAATTGCGGACGTCGAGTAAACAAATTTTCCTAATCTTTCTGTTCAAGCGCCATCTAC | 1.02 RPM ratio (pull-down/input) |
| GATGATTGTTCTCCCAGCTGATGAATTGACCGAGTCGAGTAAACAAATTTTCCTAATCTTTCTGTTCAAGCGCCATCTAC | 0.835 RPM ratio (pull-down/input) |
| GATGATTGTTCTCCCAGCTGATGAATTTCGGTCGTCGAGTAAACAAATTTTCCTAATCTTTCTGTTCAAGCGCCATCTAC | 0.902 RPM ratio (pull-down/input) |
| GATGATTGTTCTCCCAGCTGATGAATTAAACGGTTCGAGTAAACAAATTTTCCTAATCTTTCTGTTCAAGCGCCATCTAC | 0.902 RPM ratio (pull-down/input) |
